From publication PMC6451091 come the findings set out here.

Conditions in all cases: 20 mM HEPES pH 7.9, 100 mM NaCl, 1 mM DTT, 0.2 mg/mL BSA, 0.02% Triton X-100, 2% milk, 0.4 mg/mL salmon testes DNA; 1 h; temperature not stated; high values mean tight binding; double strand, one strand shown; sequences stand for … in GCCTAGCAC…GTGCTAGGTCTTGATTCGCTTGACGCTGCTG
Assay [1] has as its target PU.1 (IVT) (UniProt P17947). The assay can be described thus: protein-binding microarray (PBM).
Assay [2] addresses PU.1 (endogenous, THP-1 nuclear extract) (UniProt P17947). The assay can be described thus: nuclear extract protein-binding microarray (nextPBM).
The target in assay [3] is T1, FLI1 (endogenous, THP-1 nuclear extract) (UniProt Q01543).
T1 sequence: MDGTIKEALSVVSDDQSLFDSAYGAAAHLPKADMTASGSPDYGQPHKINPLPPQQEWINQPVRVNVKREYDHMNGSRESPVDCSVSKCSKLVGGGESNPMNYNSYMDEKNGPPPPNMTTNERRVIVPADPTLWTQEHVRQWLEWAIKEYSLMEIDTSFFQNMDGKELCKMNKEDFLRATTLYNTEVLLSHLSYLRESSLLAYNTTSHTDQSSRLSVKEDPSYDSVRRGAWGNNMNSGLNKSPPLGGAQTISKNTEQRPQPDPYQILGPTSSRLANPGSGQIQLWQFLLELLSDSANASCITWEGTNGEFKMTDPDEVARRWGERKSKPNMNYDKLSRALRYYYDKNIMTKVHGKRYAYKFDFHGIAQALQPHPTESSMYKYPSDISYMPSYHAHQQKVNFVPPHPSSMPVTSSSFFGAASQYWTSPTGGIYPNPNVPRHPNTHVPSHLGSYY
The description is as above.

The list shows a part of the results. For part of these data: At the low end of the ranking the order means little. For part of these data: Measured with an extract: partners may take part in the binding.

Take CGAAAGGGGAAGTGCTAAAG: the binding signal in assay [1] amounted to 6.86 z-score; in assay [2], 7.13 z-score; in assay [3], 3.3 z-score.

On to AGAAAGAGGAACTGAGAAAG, for which the binding signal in assay [1] was 6.49 z-score; in assay [2], 6.87 z-score; in assay [3] it was 2.48 z-score.

In the case of TGACAGAGGAAGTGGCAGCC, the binding signal worked out at 3.23 z-score in assay [1], 3.21 z-score in assay [2] and 2.35 z-score in assay [3].

For the sequence TAAAAGAGGAAGAGGAAGAA, the binding signal was determined as 5.75 z-score in assay [1], 6.38 z-score in assay [2] and 2.97 z-score in assay [3].

As to GAGAGGAGGAAGTGTTTATG, the binding signal in assay [1] came out at 4.59 z-score; in assay [2], 4.1 z-score; in assay [3], 2.67 z-score.

For CTAATGAGGAACTGATGCGG, the binding signal in assay [1] was determined as 4.39 z-score; in assay [2], 4.61 z-score; in assay [3], 1.05 z-score.

In the case of GAAAACAGGAAGACCCATAG, the values for the binding signal in assay [1], in assay [2] and in assay [3] were 3.01 z-score, 3.32 z-score and 2.08 z-score, respectively.

For the sequence GGATTAAGGAAGTGGAACTA, the binding signal is 5.65 z-score in assay [1], 6.2 z-score in assay [2] and 2.6 z-score in assay [3].

Take CAAATGAGGACCTGATGCGG: the binding signal was 0.267 z-score in assay [1], 0.536 z-score in assay [2] and -0.774 z-score in assay [3].

With GAAAAGAGGAAGTCAAACTC, the binding signal in assay [1] stood at 8.12 z-score; in assay [2], 7.23 z-score; in assay [3], 3.79 z-score.

TGAAACGGGAAGTGTCAGCA: the figures for the binding signal in assay [1], in assay [2] and in assay [3] were 5.45 z-score, 6.28 z-score and 2.72 z-score, respectively.

As to AGAAGCAGGAAGTGGTAAGT, the binding signal in assay [1] was found to be 4.6 z-score; in assay [2] it was 4.22 z-score; in assay [3] it was 4.42 z-score.

With GAAAAAGGGAAGTGGTTCAT, the results for the binding signal in assay [1], in assay [2] and in assay [3] were 7.6 z-score, 7.26 z-score and 2.93 z-score, respectively.

For ACAAAAAGGAACTGTACCCC, the binding signal in assay [1] is 1.74 z-score; in assay [2], 1.92 z-score; in assay [3], 0.651 z-score.

Take GAAATGGGGAAGTCACAGAG: the results for the binding signal in assay [1], in assay [2] and in assay [3] were 6.31 z-score, 6.42 z-score and 2.05 z-score, respectively.

TGGAGGAGGAAGTGGGTGGA: the binding signal in assay [1] is 4.58 z-score; in assay [2], 4.91 z-score; in assay [3], 2.84 z-score.

Regarding CGAAAGGGGAAGCGCTAAAC, the binding signal amounted to 4.66 z-score in assay [1], 5.18 z-score in assay [2] and 1.77 z-score in assay [3].

For TTAAAGAGGAACTGCACGCC, the binding signal stood at 4.21 z-score in assay [1], 4.9 z-score in assay [2] and 1.43 z-score in assay [3].

For the sequence GGTGGGAGGAAGTGCTTATT, the binding signal in assay [1] came out at 4.11 z-score; in assay [2], 3.76 z-score; in assay [3] it was 2.85 z-score.

AAATTAGGGAAGTGGTGAAT: the binding signal in assay [1] worked out at 6.62 z-score; in assay [2], 6.58 z-score; in assay [3] it was 2.83 z-score.

As to AGGTAGAGGAAGTAGACTAG, the binding signal came to 4.13 z-score in assay [1], 4.09 z-score in assay [2] and 2.18 z-score in assay [3].

As to CATAAGAGGAAGTCCTCTGT, the binding signal was determined as 5.75 z-score in assay [1], 6.51 z-score in assay [2] and 3.15 z-score in assay [3].

As to AGAAAACGGAAGTGAGGTAC, the binding signal came out at 6.67 z-score in assay [1], 6.89 z-score in assay [2] and 5.26 z-score in assay [3].

Take TGGAAGGGGAAGTGGTGGTG: the binding signal in assay [1] turned out to be 5.36 z-score; in assay [2], 5.57 z-score; in assay [3], 2.56 z-score.

Turning to CCTGAGGGGAAGTGGGTCAG, the binding signal was found to be 3.52 z-score in assay [1], 3.62 z-score in assay [2] and 2.27 z-score in assay [3].

AAGAAGGGGAAGTGGAAACC: the figures for the binding signal in assay [1], in assay [2] and in assay [3] were 5.65 z-score, 6.46 z-score and 2.89 z-score, respectively.

Regarding ACAAAAGGGAACTGTGCCCC, the binding signal was determined as 2.55 z-score in assay [1], 2.69 z-score in assay [2] and 0.373 z-score in assay [3].

Regarding AAAAAAAGGAAGTCCTTGTG, the binding signal was determined as 6.48 z-score in assay [1], 6.43 z-score in assay [2] and 2.88 z-score in assay [3].

Consider AGAAAAAGGAACTGTGCCCC, for which the binding signal in assay [1] is 3.05 z-score; in assay [2], 3.05 z-score; in assay [3], 0.67 z-score.

For GAAGAAGGGAAGTGGAAGAA, the results for the binding signal in assay [1], in assay [2] and in assay [3] were 3.41 z-score, 2.97 z-score and 2.03 z-score, respectively.

ACAAAGAGGAAGTGGGTTCA: the figures for the binding signal in assay [1], in assay [2] and in assay [3] were 6.84 z-score, 6.78 z-score and 3.85 z-score, respectively.

For the sequence AAAAAAAGGAACTGATTCTT, the binding signal in assay [1] amounted to 5.43 z-score; in assay [2] it was 5 z-score; in assay [3], 1.66 z-score.

Turning to CCACAGAGGAAGTGGCTGAG, the results for the binding signal in assay [1], in assay [2] and in assay [3] were 3.06 z-score, 3.46 z-score and 2.56 z-score, respectively.

Take AAATAGAGGAAGTGAATTGT: the figures for the binding signal in assay [1], in assay [2] and in assay [3] were 7.77 z-score, 7.18 z-score and 3.87 z-score, respectively.

With CCACAGAGGAAATGAGTTCT, the binding signal in assay [1] is 1.33 z-score; in assay [2], 1.16 z-score; in assay [3] it was 2.6 z-score.

With TTTAAGAGGAAGTGAGATAG, the binding signal in assay [1] stood at 5.9 z-score; in assay [2] it was 6.21 z-score; in assay [3] it was 3.15 z-score.

Turning to AATAAGGGGAAGTGAAGGCA, the binding signal is 5.58 z-score in assay [1], 6.4 z-score in assay [2] and 2.9 z-score in assay [3].

With TTGGGGAGGAAGTGAGTGCC, the binding signal worked out at 3.42 z-score in assay [1], 3.24 z-score in assay [2] and 2.94 z-score in assay [3].

As to ATAAAGAGGAAGTGAAATTA, the binding signal in assay [1] turned out to be 8.11 z-score; in assay [2] it was 7.52 z-score; in assay [3], 4.05 z-score.

In the case of AAATTGAGGAAATGCAGAGA, the results for the binding signal in assay [1], in assay [2] and in assay [3] were 3.63 z-score, 3.74 z-score and 1.85 z-score, respectively.

Turning to TAGAGCAGGAAGTGACTGAT, the binding signal turned out to be 2.69 z-score in assay [1], 2.85 z-score in assay [2] and 4.19 z-score in assay [3].

With TTTTAAGGGAAGTGGTCTTT, the binding signal in assay [1] is 3.96 z-score; in assay [2] it was 3.98 z-score; in assay [3], 1.78 z-score.

Turning to GAAAACAGGAAGTGACTGTT, the binding signal in assay [1] worked out at 8.08 z-score; in assay [2], 7.33 z-score; in assay [3] it was 5.83 z-score.

As to GGAAAGGGGAAGTTGGCAGC, the binding signal in assay [1] is 7.8 z-score; in assay [2], 7.42 z-score; in assay [3], 4.3 z-score.

As to AGCATGAGGAAGTGTCAGAT, the binding signal in assay [1] came out at 4.45 z-score; in assay [2], 4.66 z-score; in assay [3], 2.04 z-score.

Consider CTGAAGGGGAAGTAAGGGAG, for which the binding signal in assay [1] stood at 4.79 z-score; in assay [2] it was 5.28 z-score; in assay [3], 2.12 z-score.

For AATAAGGGGAAGTCGTGTCT, the binding signal in assay [1] stood at 5.43 z-score; in assay [2], 6.08 z-score; in assay [3], 2.43 z-score.

For the sequence AGAATAAGGAAGTGGCTAAT, the binding signal came to 5.85 z-score in assay [1], 6.23 z-score in assay [2] and 2.39 z-score in assay [3].

For the sequence TGAGAGGGGAAGTGGCAGCT, the binding signal was determined as 4.01 z-score in assay [1], 3.62 z-score in assay [2] and 2.19 z-score in assay [3].

In the case of TTTATGAGGAAGTGTCATTT, the binding signal worked out at 5.74 z-score in assay [1], 6.06 z-score in assay [2] and 2.95 z-score in assay [3].

On to CGAATGGGGAAGTGCTAAAC, for which the binding signal in assay [1] was 6.27 z-score; in assay [2], 6.65 z-score; in assay [3], 2.87 z-score.

Take CAAAAAGGGAAGCGGATGCT: the binding signal stood at 3.71 z-score in assay [1], 4.29 z-score in assay [2] and 3.12 z-score in assay [3].

On to AAGAGGAGGAAGTGCCTGAA, for which the binding signal in assay [1] worked out at 4.46 z-score; in assay [2] it was 4.58 z-score; in assay [3], 2.65 z-score.

With GGAAAGAGGAAGTGAGGTGG, the binding signal in assay [1] worked out at 7.61 z-score; in assay [2] it was 7.13 z-score; in assay [3] it was 4.22 z-score.

With AGGAAGAGGAAGTGGCAGGG, the binding signal in assay [1] stood at 6.45 z-score; in assay [2], 6.33 z-score; in assay [3], 3.69 z-score.

In the case of CTGCTGAGGAAGTGATGTTT, the binding signal was 3.13 z-score in assay [1], 2.77 z-score in assay [2] and 2.24 z-score in assay [3].

For the sequence AAATAGAGGAAGTGGATGTT, the values for the binding signal in assay [1], in assay [2] and in assay [3] were 7.31 z-score, 7.05 z-score and 4.26 z-score, respectively.

For AATATGAGGAAGTGCTCTAG, the values for the binding signal in assay [1], in assay [2] and in assay [3] were 6.67 z-score, 6.7 z-score and 2.92 z-score, respectively.

In the case of AAAAAAAGAAACTGGCTAGA, the binding signal in assay [1] was -0.279 z-score; in assay [2], -0.245 z-score; in assay [3] it was 0.232 z-score.

On to CCTTGGAGGAAGTGGTCAGA, for which the figures for the binding signal in assay [1], in assay [2] and in assay [3] were 3.25 z-score, 3.27 z-score and 2.4 z-score, respectively.

Consider AAAATGAGGAACTAGCGAAA, for which the binding signal in assay [1] turned out to be 6.87 z-score; in assay [2], 6.87 z-score; in assay [3], 2.22 z-score.

Consider GAAAATAGGAAGTCCCATAG, for which the results for the binding signal in assay [1], in assay [2] and in assay [3] were 4.72 z-score, 4.82 z-score and 1.88 z-score, respectively.

For the sequence AGAAAGAGGAAGAGCCTCAG, the binding signal in assay [1] was found to be 5.13 z-score; in assay [2] it was 5.6 z-score; in assay [3] it was 1.81 z-score.
